# The supplement of paper PMC3334620
# Whole data set: some 33,000 sequences, median “E-score (-0.5 to 0.5)” near -0.035, cut for the highest 2% near 0.34. Some of the results follow.
# Biological target: T1, Mot3 (UniProt P54785)
# T1 sequence: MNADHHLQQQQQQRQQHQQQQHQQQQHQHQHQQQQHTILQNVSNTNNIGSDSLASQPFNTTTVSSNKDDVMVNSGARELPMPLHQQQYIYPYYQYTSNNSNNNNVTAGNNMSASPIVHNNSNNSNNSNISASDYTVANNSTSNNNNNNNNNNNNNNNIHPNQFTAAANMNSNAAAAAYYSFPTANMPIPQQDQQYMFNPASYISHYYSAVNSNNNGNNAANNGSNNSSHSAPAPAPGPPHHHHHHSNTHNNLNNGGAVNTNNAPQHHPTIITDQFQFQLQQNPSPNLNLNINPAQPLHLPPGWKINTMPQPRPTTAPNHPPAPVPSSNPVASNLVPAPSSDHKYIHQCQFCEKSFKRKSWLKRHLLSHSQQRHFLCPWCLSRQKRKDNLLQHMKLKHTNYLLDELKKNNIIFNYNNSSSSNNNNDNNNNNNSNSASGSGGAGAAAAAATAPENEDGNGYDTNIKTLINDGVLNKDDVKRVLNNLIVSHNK
# Experiment: PBM E-score (8-mer binding enrichment) (E-score (-0.5 to 0.5)); higher = stronger / more preferred TF binding; most listed sequences are background and not binding sites
# Details: protein concentration: 200 nM; construct: GST-full length
# Method in brief: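 Yeast transcription factors carrying a GST tag, as full-length proteins or DNA-binding domains, were produced by PURExpress in vitro transcription/translation. About 100-200 nM protein was applied to universal all-10-mer Agilent arrays, double-stranded by primer extension on fresh or once-stripped slides. Bound protein was detected with fluorescent anti-GST, and scans were normalised with masliner. The Universal PBM Analysis Suite gave each ungapped eight-base word, pooled with its reverse complement, an E-score, a modified Wilcoxon-Mann-Whitney statistic.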
row,Sequence,PBM E-score
1,AGAAAATG,0.022
2,AGCTTCAG,-0.232
3,AAGAAAGG,0.233
4,CATGCGAG,-0.143
5,CAGGGACC,-0.263
6,CGTCGTTC,0.086
7,ACCAACCA,-0.0619
8,CAGGTAAA,0.383
9,GGTTGACA,0.0363
10,ACATAACT,0.239
11,CACACCGA,0.123
12,CTTGCTAA,0.0456
13,ACTCGGCG,-0.169
14,CCCATTAC,0.145
15,GGGCCGAC,-0.317
16,CCATCTAG,-0.0951
17,CGTTTACA,0.349
18,GATACTGA,-0.0459
19,GCTGCTAC,-0.21
20,CCACCAAA,-0.137
21,AGTGAAGG,0.179
22,ACCAAGAT,-0.0946
23,ACCGTATG,-0.115
24,CTTCCGTC,-0.151
25,CATGAGAA,0.233

row,Sequence,PBM E-score
1,CCTGGGTA,-0.0534
2,AGCCCCAT,-0.0787
3,CCATGGGA,-0.262
4,CCATTCAC,-0.156
5,AAAACCCT,-0.0651
6,CCGGGGCA,-0.234
7,CATAGGGC,0.0429
8,GACGGGTA,-0.204
9,ACAGGCAA,0.489
10,GCCAAAGA,-0.0826
11,GTGAAGCA,-0.145
12,ATTGCCAA,-0.0917
13,AGAGCGGC,-0.159
14,ATATGATC,-0.0454
15,AATGTGGA,-0.00117
16,CATTCAGG,0.00366
17,CAAGAGCG,-0.137
18,ACCGATGC,-0.164
19,GTAGACAC,0.129
20,GAATGCGC,-0.141
21,CGGTGTGA,-0.116
22,CCTGGGGA,-0.0479
23,ATGACTAA,-0.128
24,CATGCTAG,0.123
25,ATACCACC,-0.132

row,Sequence,PBM E-score
1,CATATGTC,-0.14
2,ATAAGATG,-0.0926
3,GCTCAAAA,-0.0353
4,ACTTGGGA,-0.155
5,AATTCAAG,0.115
6,CTTGCTCC,-0.258
7,GTCGACTA,0.0579
8,GGTTCTAC,0.0499
9,CTCTATCC,-0.0756
10,ATCGGGCA,-0.0672
11,ACATTCAT,0.236
12,AGCCAGGA,-0.0709
13,CGGTGGTC,-0.0989
14,TCAAACCA,-0.0433
15,ACCAGCAG,-0.37
16,CACTCTAC,0.152
17,GCGGAGCC,-0.225
18,GTATTAGA,0.201
19,TGCAACAA,0.125
20,GGCTCACC,-0.261
21,CTCAAGTC,-0.136
22,AACGGGGC,-0.169
23,CCCTTATA,0.0164
24,AAGGAAAG,0.441
25,CGTAGTCC,-0.254

row,Sequence,PBM E-score
1,AAGGTGCA,0.102
2,AATATGGT,-0.0897
3,ATAGGACC,-0.0931
4,AAACGCCA,0.071
5,CTTGTGAA,0.152
6,AACGTCAA,0.0839
7,GGCATGCC,-0.126
8,TTATTAAA,0.175
9,CTCATGCA,-0.138
10,CATGCTGC,-0.125
11,CTGATAGA,-0.0628
12,AAAGACCT,-0.0824
13,AGATTCGA,-0.0235
14,GATTGATA,0.122
15,ATTTTCTC,-0.195
16,AGTAGCCA,-0.269
17,GTGGCTCA,-0.26
18,AGCTTGAG,-0.308
19,CCGCGGCA,-0.0732
20,CAACCATG,0.127
21,AAAGCACC,-0.0982
22,ATCTGTGA,-0.161
23,CGTATGAG,-0.159
24,CGCTTCCC,-0.126
25,TAGTAGCA,-0.011

row,Sequence,PBM E-score
1,AAAATCTG,-0.0854
2,ATCTCCAG,-0.118
3,GATGGGCA,-0.0681
4,GGTTCCTA,0.454
5,ACAAGAGG,0.166
6,ACAGTCCA,0.0673
7,TAATGCTA,0.24
8,CAAGTCAA,0.0158
9,CCCCAACA,-0.0637
10,GCACAAAC,0.0655
11,CCTGAAGG,0.0946
12,CGCCCCGA,-0.237
13,AGGTTAAG,0.137
14,GATGGGAA,-0.153
15,CAGACGCA,-0.108
16,CATCGATC,-0.0248
17,AGATGAAA,0.00204
18,CTAGCGAA,-0.274
19,CGGTAACG,-0.13
20,GGCGAGCC,-0.0946
21,CGGCCTAA,-0.0857
22,CCTCTCCC,-0.133
23,ATCGATGA,0.0733
24,CGTAAGGA,0.232
25,AGAGTTCG,-0.0196

row,Sequence,PBM E-score
1,GTGACGTA,0.138
2,AGTTCCAG,-0.143
3,CCTCAGAA,0.025
4,CACTGATA,-0.0318
5,CAGGCCTA,-0.148
6,AGTGCCGC,-0.373
7,ACCTACGA,0.285
8,CCAGTCGC,-0.259
9,GTAGGGTA,-0.0161
10,ACTCCCGA,-0.281
11,AACGGTAA,0.0433
12,GAAAGAAA,0.1
13,GCTACTGA,-0.122
14,CCTGCAAA,0.285
15,CAGTGACC,-0.247
16,CTAGTCAC,-0.047
17,CCGGGCTA,-0.116
18,GTAAGCAC,0.0813
19,TACAAGAA,0.214
20,GGTCCACC,-0.259
21,AGCAACAC,0.143
22,CAGGGTAG,-0.147
23,AGTCTACG,-0.14
24,GTCCAGAC,-0.261
25,AGCTATCA,-0.0955

row,Sequence,PBM E-score
1,CGTCCCAC,-0.0132
2,AATCGTAG,0.0639
3,CTAAGGCA,0.452
4,ACACGCGC,0.21
5,CCGCACAA,-0.326
6,AAAGAATT,0.104
7,ATGCACCG,-0.0841
8,CTCGAATA,-0.115
9,GAGTTGCA,-0.0669
10,ATACGTGC,0.185
11,AACTACCC,0.0263
12,CACAGGTG,0.0773
13,CTGCCCAA,-0.173
14,GTTGACAA,0.177
15,AGATTTAA,0.144
16,AAGGTAGA,-0.0631
17,AGCTGTAG,0.00057
18,ATGTGGGG,-0.188
19,CGACCGCA,-0.0853
20,AAGATGAT,0.0671
21,AATGACTA,-0.0693
22,GAGGTGGC,-0.275
